# Data: the supplement of paper PMC8728848
# Some of the results follow.
# B1: IRp60B (Homo sapiens), Q9UGN4-3 (protein)
# chain: MWLPWALLLLWVPAGDHSELSQNPKQAATQSELHYANLELLMWPLQEKPAPPREVEVEYSTVASPREELHYASVVFDSNTNRIAAQRPREEEPDSDYSVIRKT
# Key:
# Assay in all cases: glycan array binding signal (z-score within array); higher = stronger binding
# Details in all cases: glycan notation: IUPAC condensed, linker removed
# [1] = target: Fuc(a1-2)Gal
# Summary of the method: (§1)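 Negative Z-scores can be read as non-binding. The Z-score is calculated within each array and then averaged across arrays of one protein sequence at different concentrations or buffers and across linkers. Arrays, 3228 in all, were curated from the Consortium for Functional Glycomics database and kept only where the protein sequence was available.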
# [2] = target: Fuc(a1-2)Gal(b1-3)GalNAc
# Summary of the method: as §1
# [3] = target: Fuc(a1-2)Gal(b1-3)GalNAc(b1-3)Gal
# Summary of the method: as §1
# [4] = target: Fuc(a1-2)Gal(b1-3)GalNAc(b1-3)Gal(a1-4)Gal(b1-4)Glc
# Summary of the method: as §1
# [5] = target: Fuc(a1-2)Gal(b1-3)GalNAc(b1-4)[Neu5Ac(a2-3)]Gal(b1-4)Glc
# Summary of the method: as §1
# [6] = target: Fuc(a1-2)Gal(b1-3)GlcNAc
# Summary of the method: as §1
# [7] = target: Fuc(a1-2)Gal(b1-3)[Fuc(a1-4)]GlcNAc
# Summary of the method: as §1
# [8] = target: Fuc(a1-2)Gal(b1-4)Glc
# Summary of the method: as §1
# [9] = target: Fuc(a1-2)Gal(b1-4)GlcNAc
# Summary of the method: as §1
# [10] = target: Fuc(a1-2)Gal(b1-4)GlcNAc(b1-3)Gal(b1-4)GlcNAc
# Summary of the method: as §1
# [11] = target: Fuc(a1-2)Gal(b1-4)GlcNAc(b1-3)Gal(b1-4)GlcNAc(b1-3)Gal(b1-4)GlcNAc
# Summary of the method: as §1
# [12] = target: Fuc(a1-2)Gal(b1-4)[Fuc(a1-3)]GlcNAc
# Summary of the method: as §1
# [13] = target: Fuc(a1-2)GlcNAc
# Summary of the method: as §1
# [14] = target: Fuc(a1-2)[Gal(a1-3)]Gal
# Summary of the method: as §1
# [15] = target: Fuc(a1-2)[Gal(a1-3)]Gal(b1-4)GlcNAc
# Summary of the method: as §1
# [16] = target: Fuc(a1-2)[Gal(a1-4)]Gal(b1-4)GlcNAc
# Summary of the method: as §1
# [17] = target: Fuc(a1-2)[GalNAc(a1-3)]Gal
# Summary of the method: as §1
# [18] = target: Fuc(a1-2)[GalNAc(a1-3)]Gal(b1-4)GlcNAc
# Summary of the method: as §1
# [19] = target: Fuc(a1-2)[GalNAc(a1-4)]Gal(b1-4)GlcNAc
# Summary of the method: as §1
# [20] = target: Fuc(a1-2)[GalNAc(b1-3)]Gal
# Summary of the method: as §1
# [21] = target: Fuc(a1-3)GlcNAc
# Summary of the method: as §1
# [22] = target: Fuc(a1-3)[Gal(b1-4)]GlcNAc
# Summary of the method: as §1
# [23] = target: Fuc(a1-3)[Gal(b1-4)]GlcNAc(b1-3)Gal(b1-4)[Fuc(a1-3)]GlcNAc
# Summary of the method: as §1
# [24] = target: Fuc(a1-3)[Gal(b1-4)]GlcNAc(b1-3)Gal(b1-4)[Fuc(a1-3)]GlcNAc(b1-3)Gal(b1-4)[Fuc(a1-3)]GlcNAc
# Summary of the method: as §1
# [25] = target: Fuc(a1-3)[Gal3S(b1-4)]GlcNAc
# Summary of the method: as §1
# [26] = target: Fuc(b1-3)GlcNAc
# Summary of the method: as §1
# [27] = target: Gal(a1-2)Gal
# Summary of the method: as §1
# [28] = target: Gal(a1-3)Gal
# Summary of the method: as §1
# [29] = target: Gal(a1-3)Gal(b1-4)Glc
# Summary of the method: as §1
# [30] = target: Gal(a1-3)Gal(b1-4)GlcNAc
# Summary of the method: as §1
# [31] = target: Gal(a1-3)Gal(b1-4)[Fuc(a1-3)]GlcNAc
# Summary of the method: as §1
# [32] = target: Gal(a1-3)GalNAc
# Summary of the method: as §1
# [33] = target: Gal(a1-3)[Gal(a1-4)]Gal(b1-4)GlcNAc
# Summary of the method: as §1
# [34] = target: Gal(a1-4)Gal(b1-4)Glc
# Summary of the method: as §1
# [35] = target: Gal(a1-4)Gal(b1-4)GlcNAc
# Summary of the method: as §1
# [36] = target: Gal(a1-4)GlcNAc
# Summary of the method: as §1
# [37] = target: Gal(a1-6)Glc
# Summary of the method: as §1
# [38] = target: Gal(b1-2)Gal
# Summary of the method: as §1
# [39] = target: Gal(b1-3)Gal
# Summary of the method: as §1
# [40] = target: Gal(b1-3)GalNAc
# Summary of the method: as §1
# [41] = target: Gal(b1-3)GalNAc(b1-4)Gal(b1-4)Glc
# Summary of the method: as §1
# [42] = target: Gal(b1-3)GalNAc(b1-4)[Neu5Ac(a2-3)]Gal(b1-4)Glc
# Summary of the method: as §1
# [43] = target: Gal(b1-3)GlcNAc
# Summary of the method: as §1
# [44] = target: Gal(b1-3)GlcNAc(b1-3)Gal(b1-4)Glc
# Summary of the method: as §1
# [45] = target: Gal(b1-3)[Fuc(a1-4)]GlcNAc
# Summary of the method: as §1
# [46] = target: Gal(b1-3)[GlcNAc(b1-6)]GalNAc
# Summary of the method: as §1
# [47] = target: Gal(b1-3)[Neu5Ac(a2-6)]GalNAc
# Summary of the method: as §1
# [48] = target: Gal(b1-3)[Neu5Ac(a2-6)]GlcNAc(b1-4)Gal(b1-4)Glc
# Summary of the method: as §1
# [49] = target: Gal(b1-3)[Neu5Ac(b2-6)]GalNAc
# Summary of the method: as §1
# [50] = target: Gal(b1-4)GalNAc(a1-3)[Fuc(a1-2)]Gal(b1-4)GlcNAc
# Summary of the method: as §1
# [51] = target: Gal(b1-4)Glc
# Summary of the method: as §1
# [52] = target: Gal(b1-4)Glc6S
# Summary of the method: as §1
# [53] = target: Gal(b1-4)GlcNAc
# Summary of the method: as §1
# [54] = target: Gal(b1-4)GlcNAc(b1-3)Gal(b1-4)Glc
# Summary of the method: as §1
# [55] = target: Gal(b1-4)GlcNAc(b1-3)Gal(b1-4)GlcNAc
# Summary of the method: as §1
# [56] = target: Gal(b1-4)GlcNAc(b1-3)Gal(b1-4)GlcNAc(b1-3)Gal(b1-4)GlcNAc
# Summary of the method: as §1
# [57] = target: Gal(b1-4)GlcNAc(b1-3)Gal(b1-4)[Fuc(a1-3)]GlcNAc(b1-3)Gal(b1-4)[Fuc(a1-3)]GlcNAc
# Summary of the method: as §1
# [58] = target: Gal(b1-4)GlcNAc(b1-3)GalNAc
# Summary of the method: as §1
# [59] = target: Gal(b1-4)GlcNAc(b1-3)[Gal(b1-4)GlcNAc(b1-6)]GalNAc
# Summary of the method: as §1
# [60] = target: Gal(b1-4)GlcNAc(b1-6)GalNAc
# Summary of the method: as §1
# [61] = target: Gal(b1-4)GlcNAc(b1-6)[Gal(b1-3)]GalNAc
# Summary of the method: as §1
# [62] = target: Gal3S(b1-3)GalNAc
# Summary of the method: as §1
# [63] = target: Gal3S(b1-3)GlcNAc
# Summary of the method: as §1
# [64] = target: Gal3S(b1-3)[Fuc(a1-4)]GlcNAc
# Summary of the method: as §1
# [65] = target: Gal3S(b1-4)Glc
# Summary of the method: as §1
# [66] = target: Gal3S(b1-4)Glc6S
# Summary of the method: as §1
# [67] = target: Gal3S(b1-4)GlcNAc
# Summary of the method: as §1
# [68] = target: Gal4S(b1-4)GlcNAc
# Summary of the method: as §1
# [69] = target: Gal6S(b1-4)Glc
# Summary of the method: as §1
# [70] = target: Gal6S(b1-4)Glc6S
# Summary of the method: as §1
# [71] = target: GalNAc(a1-3)Gal
# Summary of the method: as §1
# [72] = target: GalNAc(a1-3)GalNAc
# Summary of the method: as §1
binder,measurement,setting,value
B1,glycan array binding signal (z-score),[1],-0.267
same,glycan array binding signal (z-score),[2],-0.478
same,glycan array binding signal (z-score),[3],-0.48
same,glycan array binding signal (z-score),[4],-0.48
same,glycan array binding signal (z-score),[5],-0.336
same,glycan array binding signal (z-score),[6],-0.242
same,glycan array binding signal (z-score),[7],-0.449
same,glycan array binding signal (z-score),[8],-0.424
same,glycan array binding signal (z-score),[9],-0.132
same,glycan array binding signal (z-score),[10],-0.369
same,glycan array binding signal (z-score),[11],-0.483
same,glycan array binding signal (z-score),[12],-0.471
same,glycan array binding signal (z-score),[13],-0.304
same,glycan array binding signal (z-score),[14],1.27
same,glycan array binding signal (z-score),[15],-0.437
same,glycan array binding signal (z-score),[16],-0.404
same,glycan array binding signal (z-score),[17],-0.266
same,glycan array binding signal (z-score),[18],0.138
same,glycan array binding signal (z-score),[19],-0.156
same,glycan array binding signal (z-score),[20],-0.471
same,glycan array binding signal (z-score),[21],-0.302
same,glycan array binding signal (z-score),[22],-0.372
same,glycan array binding signal (z-score),[23],-0.443
same,glycan array binding signal (z-score),[24],3.4
same,glycan array binding signal (z-score),[25],-0.445
same,glycan array binding signal (z-score),[26],-0.221
same,glycan array binding signal (z-score),[27],-0.436
same,glycan array binding signal (z-score),[28],-0.439
same,glycan array binding signal (z-score),[29],-0.396
same,glycan array binding signal (z-score),[30],-0.405
same,glycan array binding signal (z-score),[31],-0.321
same,glycan array binding signal (z-score),[32],0.074
same,glycan array binding signal (z-score),[33],-0.425
same,glycan array binding signal (z-score),[34],5.38
same,glycan array binding signal (z-score),[35],2.07
same,glycan array binding signal (z-score),[36],-0.202
same,glycan array binding signal (z-score),[37],-0.425
same,glycan array binding signal (z-score),[38],-0.402
same,glycan array binding signal (z-score),[39],1.56
same,glycan array binding signal (z-score),[40],-0.26
same,glycan array binding signal (z-score),[41],2.68
same,glycan array binding signal (z-score),[42],-0.449
same,glycan array binding signal (z-score),[43],0.72
same,glycan array binding signal (z-score),[44],0.752
same,glycan array binding signal (z-score),[45],-0.404
same,glycan array binding signal (z-score),[46],-0.429
same,glycan array binding signal (z-score),[47],-0.039
same,glycan array binding signal (z-score),[48],-0.494
same,glycan array binding signal (z-score),[49],0.306
same,glycan array binding signal (z-score),[50],-0.378
same,glycan array binding signal (z-score),[51],1.38
same,glycan array binding signal (z-score),[52],-0.392
same,glycan array binding signal (z-score),[53],-0.346
same,glycan array binding signal (z-score),[54],-0.397
same,glycan array binding signal (z-score),[55],0.355
same,glycan array binding signal (z-score),[56],0.061
same,glycan array binding signal (z-score),[57],-0.518
same,glycan array binding signal (z-score),[58],-0.292
same,glycan array binding signal (z-score),[59],4.42
same,glycan array binding signal (z-score),[60],-0.322
same,glycan array binding signal (z-score),[61],-0.22
same,glycan array binding signal (z-score),[62],0.74
same,glycan array binding signal (z-score),[63],-0.322
same,glycan array binding signal (z-score),[64],4.5
same,glycan array binding signal (z-score),[65],-0.451
same,glycan array binding signal (z-score),[66],1.02
same,glycan array binding signal (z-score),[67],-0.281
same,glycan array binding signal (z-score),[68],-0.324
same,glycan array binding signal (z-score),[69],-0.24
same,glycan array binding signal (z-score),[70],-0.421
same,glycan array binding signal (z-score),[71],0.046
same,glycan array binding signal (z-score),[72],-0.293
